The values that follow come from publication PMC12136788.

B1: chr10:73917138:73917420:+|3pUTR|ENSG00000122861|msi1|total|mutant (ssRNA)
RNA: GGGAGUUCUACAGUCCGACGAUCGGAAUGUAUUAUUCUGCAGCAUGACCUGUGACCAGCACUGUCUCAGUUUCACUUUCACACCGAUGUCCCUUUCUUGGCCAGUUAUCCCUUCCUUUCCGCCCCGUUCAUCCAAUCCUCACUCAACAGAGGAUUGAGCAUCA
B2: chr13:110149936:110150037:-|3pUTR|ENSG00000187498|msi1|total|mutant (ssRNA)
RNA: GGGAGUUCUACAGUCCGACGAUCUUCUUGUAUUAUAAUUAAUUUUCUACCCCCAGAGAUAAAUGUUUGUUUAUAUCACUGUCCCGCUGUUUCAAAAUUCCGGUCCCUUGGUCUGUACAAAUAACCGCAAUGUAAAAAUGGUUUCAACAGAGGAUUGAGCAUCA
B3: chr13:28712679:28713550:-|CDS|ENSG00000139508|control|control|control (ssRNA)
RNA: GGGAGUUCUACAGUCCGACGAUCUGAAGUUUUUAUAGGUUAUGGAUCAGCUUUGGGUAGUGCCUCUUUUUUGACUAGUUUCCUAGGAAUAUGGCUUUUUUCUUAUUGUAUGGAAGAUAUUCAUAUGGCCUUCAUUGGGAUUUUCAACAGAGGAUUGAGCAUCA
B4: chr21:34788506:34788607:-|3pUTR|ENSG00000159216|msi1|total|mutant (ssRNA)
RNA: GGGAGUUCUACAGUCCGACGAUCUUGUUAAUGCCUAUAACUUUUUUUCAAUUUUUUUGUGUGUGUUUCUAAGGACUUUUUCUCCGGUUUGCUAAAUACUGCCGGGAAAAAAAUGCUUCUUUCUACUUUGUUUAUUUCCGACUUCAACAGAGGAUUGAGCAUCA
B5: chr3:31579932:31580050:+|CDS|ENSG00000163527|unk|FALSE|unique (ssRNA)
RNA: GGGAGUUCUACAGUCCGACGAUCUACAUCUAUAUCUACUUUCCUGCUUACAAGAGAACUUUGGAACCAAGGAGCAGGACUUUUAGCUGCUUGUUUUAUUGCUAUUGUACCAGGCUACAUAUCUCGGUCAGUAGCUGGAUCCUUCAACAGAGGAUUGAGCAUCA
B6: ENSG00000102230:stop:overlap|stop_codon|ENSG00000102230|stop_codon|NA|stop_codon (ssRNA)
RNA: GGGAGUUCUACAGUCCGACGAUCUGCAGGCCUUAUCCCCGAAGCAGAGCCCUCUGAAGAGUUGGGCGAGGUGCAGAGACUUCUAGCUGGACAACCUACACAAACCUUAGCGUCUAGAGUCACUCUAACCUUGCUAAGGAAGGACAACAGAGGAUUGAGCAUCA
B7: chr19:38409054:38410039:-|three_prime_utr|ENSG00000171777|control|control|control (ssRNA)
RNA: GGGAGUUCUACAGUCCGACGAUCCUCCCUUCCCCCAGUCAGUCCUGAGUCCUGCCGUCAGACUCUGGCAGGGCUCCCAGAGGUAGGCCUCCAGAGGCAUCCGCCUUCCCAUCCACACUGCCUUUAGUGGUACGUCCGUCAUCUCAACAGAGGAUUGAGCAUCA
B8: chr12:64421256:64421371:+|CDS|ENSG00000184575|unk|total|mutant (ssRNA)
RNA: GGGAGUUCUACAGUCCGACGAUCGUUGACUUCCUGGCCAGAUUUUCUAAGUUGGUAAAUGGAAUGGGACAGUCAUUGACCGUCCGUUGGAGUAAAUUAAUUAAGAAUGGGGAUAUUAAGAAUGCUCAAGAGGCACUACAAGCUCAACAGAGGAUUGAGCAUCA
B9: chr15:64675409:64675510:+|CDS|ENSG00000180357|msi1|FALSE|bound_elsewhere (ssRNA)
RNA: GGGAGUUCUACAGUCCGACGAUCAACCAACAGCCCUGCAUACUCUGACAUCUCUGAUGCUGGGGAGGAUGGGGAGGGCAAGGUAGACAGUGUCAAAUCAAAGGACGCCGAACAGUUGGUUAAAGAAGGGGCUAAGAAAACUCUCAACAGAGGAUUGAGCAUCA
B10: chr2:43888187:43888297:-|3pUTR|ENSG00000138095|unk|total|mutant (ssRNA)
RNA: GGGAGUUCUACAGUCCGACGAUCAAAAUGUUAUUCCUUUAUUUAAGAUUCACUUAUCCGUCUGCUGUUUCUCUGAAAAAUUUCCGAGCCCGGUACCGUGACCGUGAACUUUCUAACGCAUAAUAUUCUGUGAUACAGCCAUUCCAACAGAGGAUUGAGCAUCA
B11: chr1:113764432:113764533:-|3pUTR|ENSG00000081019|msi1|total|mutant (ssRNA)
RNA: GGGAGUUCUACAGUCCGACGAUCAAAAUAUUCUGAAACCGGUUAAAUCUUAUAUAAAUAUUACUUUGUGCAAUAUUGUUGUGCCGUUAAAUGCAUAUCCGCAAAGUACCGAGGUCACUGUGUAAACCGACCGAAAAGUAACCACAACAGAGGAUUGAGCAUCA
B12: ENSG00000124766:be:win_1801|3pUTR|ENSG00000124766|bound_else_gene|NA|bound_elsewhere_windowed (ssRNA)
RNA: GGGAGUUCUACAGUCCGACGAUCGAGCUUCCGGACUUGUCUGCACCCCCAGCAAGAAGGCGAGUUAGUUUUCUAGAGACUUGAAGGAGUCUCCCCCUUCCUGCAUCACCACCUUGGUUUUGUUUUAUUUUGCUUCUUGGUCAACAACAGAGGAUUGAGCAUCA
B13: chr10:32268825:32268926:-|3pUTR|ENSG00000120616|unk|total|mutant (ssRNA)
RNA: GGGAGUUCUACAGUCCGACGAUCUGGGGACUUGACAGCAAUGCUCAUCUCUCAUGCUUCAAUUUUUCUUUUCUUACUGUUAACCGGAAAAAAAUCAACAUCUGUAAAUUAAGAAUACAGCAAUUAUCUGUACAGUACUGCAUACAACAGAGGAUUGAGCAUCA
B14: chr5:72990507:72990614:+|CDS|ENSG00000157107|unk|total|mutant (ssRNA)
RNA: GGGAGUUCUACAGUCCGACGAUCGUAUGGGAUGUAUUCAAAACAUCUACAGAGAAAUCCGCAAAUUGUCACUUGGAUCUUGUCCGAAAAUUACAAGAAUUAAUAAAGGAAGUUCAGAAGUAUGGAGAAGAACAAGUAAAGUCUCAACAGAGGAUUGAGCAUCA
B15: chr13:106490488:106490589:-|3pUTR|ENSG00000125266|msi1|total|mutant (ssRNA)
RNA: GGGAGUUCUACAGUCCGACGAUCAGCCAUCAGAAGUUACUUUCCGGAUGGGGGAGAGGGGCGAGAAGGGGAAAAAUGGGAAACCGUCUGAUUUUAAUGAAAUCAAAUGUAUGUAUCAUCAGUUGGCUACGUUUUGGUUCUAUGCAACAGAGGAUUGAGCAUCA
B16: chr13:98915392:98915499:-|CDS|ENSG00000088387|unk|total|mutant (ssRNA)
RNA: GGGAGUUCUACAGUCCGACGAUCUCAUUUCAGAACAACAAAGUCAGGCGUUUUGCUUUUGAGCUCAAGAUGCAGGACAAAAGCCGUUAUCUCUUGGCAGCAGACAGUGAAGUGGAAAUGGAAGAAUGGAUCACAAUUCUAAAUCAACAGAGGAUUGAGCAUCA
B17: chr11:118254921:118255022:-|3pUTR|ENSG00000149573|unk|total|mutant (ssRNA)
RNA: GGGAGUUCUACAGUCCGACGAUCACAGCCUCAUUAUUAAGGUCUUAUUUAAUUUCAGAGUGUAAAUUUUUUCAAGUGCUCAUCCGGUUUUAUAAACAAGAAGCUACAUUUUUGCCCUUAAGACACUACUUACAGUGUUAUGACCAACAGAGGAUUGAGCAUCA
B18: chr1:108222463:108223704:-|three_prime_utr|ENSG00000196427|control|control|control (ssRNA)
RNA: GGGAGUUCUACAGUCCGACGAUCACUAUGCUCCUUUGAUUUGAGAAGCCACAUUCCAUCCCCCUCCAAUUGUGAUCAAUACCUAGGGAGACCAAUGCCCAGAUGGACAAAUAGCAUUGACCGGCGUUAGCCCUGUUUCUCAAUCAACAGAGGAUUGAGCAUCA
B19: ENSG00000198589:be:win_351|CDS|ENSG00000198589|bound_else_gene|NA|bound_elsewhere_windowed (ssRNA)
RNA: GGGAGUUCUACAGUCCGACGAUCUCUGAAGAAAAGCAUACGGAAUCUUCAAGUCUGCACUGAAGUAGGCCUUGUUGAAAAAGUGCUUGGGAAAAUUGAAAAAGUUGACAAUAUGAUAGCAGAUCUUUUGGUUGACAUGUUGGGCAACAGAGGAUUGAGCAUCA
B20: chrX:101268252:101269192:-|three_prime_utr|ENSG00000102387|control|control|control (ssRNA)
RNA: GGGAGUUCUACAGUCCGACGAUCGUUGAAUCAGUUAUAUUUAUCUGUACCUUCUUUGCUACUUAAAAUAUGCUCACAGUUUGUAGUCAUGUAGAAAAGGCCAGUAUAAAAAUGUAGUAGACUUAAAGACCCCACUCGACCAUGCAACAGAGGAUUGAGCAUCA
B21: chr22:21445082:21445183:+|CDS|ENSG00000169635|msi1|FALSE|bound_elsewhere (ssRNA)
RNA: GGGAGUUCUACAGUCCGACGAUCCCUGUGUGACGUCAUCAUCAUGGUGGAGAACUCCAUCUUCCGGGCCCACAAGAACGUCCUAGCCGCCAGCAGCAUCUAUUUCAAGUCCCUGGUCCUGCACGACAACCUCAUCAACCUGGACAACAGAGGAUUGAGCAUCA
B22: chr7:27153715:27154908:-|three_prime_utr|ENSG00000122592|control|control|control (ssRNA)
RNA: GGGAGUUCUACAGUCCGACGAUCAAAAGACACCCCCAACCCCAGGCCAGCCGGCCCUGCUCUGGCGCGUCCAAAAUACUACCUAGCACAGGCCUCUGCUCGAGGCACCCCCAAACUACCUAUGUAUCCAGCCCCAGAGGGCCUCAACAGAGGAUUGAGCAUCA

Some of the results follow.

In this test the target is T1, UNK ZnF1-6 (called full-length) (human, UniProt Q9C0B0 30-357).
T1 sequence: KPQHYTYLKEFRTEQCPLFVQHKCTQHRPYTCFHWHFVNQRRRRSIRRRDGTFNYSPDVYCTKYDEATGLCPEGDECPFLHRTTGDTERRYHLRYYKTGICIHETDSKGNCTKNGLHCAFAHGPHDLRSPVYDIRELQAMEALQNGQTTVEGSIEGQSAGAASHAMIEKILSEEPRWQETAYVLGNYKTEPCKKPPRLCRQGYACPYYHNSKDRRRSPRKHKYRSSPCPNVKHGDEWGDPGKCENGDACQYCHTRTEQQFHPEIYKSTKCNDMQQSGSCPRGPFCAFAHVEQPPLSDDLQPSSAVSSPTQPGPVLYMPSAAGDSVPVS
Put plainly: nsRBNS (natural sequence RNA bind-n-seq); RBNS binding buffer (assumed for nsRBNS): 25 mM Tris pH 7.5, 150 mM KCl, 3 mM MgCl2, 0.01% Triton X-100, 500 ug/ml BSA, 20 U/ml SUPERase-In, 4 C; UNK is unkempt and MSI1 is Musashi-1; names of the RNAs are library labels; protein concentration not given here; high values mean tight binding.
Consider B1, for which the binding signal turned out to be 0.837 enrichment R.

Regarding B2, the binding signal worked out at 1.55 enrichment R. The molecule B3 displayed a binding signal of 1.1 enrichment R. Next, B4: 1.35 enrichment R; B5: 0.508 enrichment R. Molecule B6 displayed a binding signal of 0.736 enrichment R.

In turn, B7 displayed a binding signal of 1.01 enrichment R. The value for B8 was 0.682 enrichment R; that for B9 was 0.674 enrichment R; that for B10 was 0.441 enrichment R.

B11 showed a binding signal of 0.639 enrichment R.

The molecule B12 displayed a binding signal of 1.02 enrichment R. Next, B13: 0.524 enrichment R. Next, B14: 0.43 enrichment R; B15: 0.93 enrichment R.

B16 yielded a binding signal of 0.466 enrichment R. The value for B17 was 0.694 enrichment R. Next, B18: 0.526 enrichment R; B19: 0.291 enrichment R. Next, B20: 0.707 enrichment R; B21: 0.806 enrichment R. Molecule B22 yielded a binding signal of 1.45 enrichment R.
